Test results from paper PMC4357395 (Journal of Medicinal Chemistry, 2015).

Assays:
PanK3 = PanK3 (Homo sapiens, UniProt Q9H999); experiment: PanK3 Kinase Glo; assay type: biochemical; settings: for activity against PanK3, in words: SAR discussion
PanK1β = target: T1, PanK1β (Homo sapiens, UniProt Q8TE04); experiment: PanK1β dose response analysis; assay type: biochemical; settings: SAR discussion
T1 sequence (Q8TE04 1-373 isoform Q8TE04-2): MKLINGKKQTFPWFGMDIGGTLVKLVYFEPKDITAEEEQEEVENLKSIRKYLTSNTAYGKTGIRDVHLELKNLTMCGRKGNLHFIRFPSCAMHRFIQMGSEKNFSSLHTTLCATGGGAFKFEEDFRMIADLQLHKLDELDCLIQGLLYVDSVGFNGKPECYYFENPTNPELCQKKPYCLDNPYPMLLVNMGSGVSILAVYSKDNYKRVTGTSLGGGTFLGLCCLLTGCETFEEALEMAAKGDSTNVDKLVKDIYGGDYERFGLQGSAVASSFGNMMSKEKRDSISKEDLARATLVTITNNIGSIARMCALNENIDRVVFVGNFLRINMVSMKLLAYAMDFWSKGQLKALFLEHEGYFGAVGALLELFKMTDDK

Sequence of UniProt Q9H999 (Q9H999 whole entry): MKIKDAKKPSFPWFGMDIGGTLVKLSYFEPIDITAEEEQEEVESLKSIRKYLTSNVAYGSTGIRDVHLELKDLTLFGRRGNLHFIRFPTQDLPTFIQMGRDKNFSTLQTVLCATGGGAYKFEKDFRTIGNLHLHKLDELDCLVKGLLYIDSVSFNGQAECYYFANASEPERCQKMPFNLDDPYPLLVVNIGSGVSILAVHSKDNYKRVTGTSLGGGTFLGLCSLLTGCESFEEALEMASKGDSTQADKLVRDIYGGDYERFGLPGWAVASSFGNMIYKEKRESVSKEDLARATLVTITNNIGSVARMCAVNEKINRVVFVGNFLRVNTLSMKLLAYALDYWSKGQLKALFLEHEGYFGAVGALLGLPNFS

reduction of activity on moving −SMe from meta- to para-position (PanK3; compared to 7) [fold]	activity against PanK3, in words (PanK3)	activity against PanK1β, in words (PanK1β)	Compound
30			CSc1ccc(NC(=O)CCc2c(C)nc3c4cccnc4nn3c2C)cc1 [Compound 14]
	completely inactive	completely inactive	Cc1nc2c3cccnc3nn2c(C)c1CCC(=O)N(C)c1ccccc1 [Compound 16]
	abrogated the activity	decreased the activity	Cc1nc2c3cccnc3nn2c(C)c1CCC(=O)NC1CCCCC1 [Compound 17]
